Test results as given in the supplement of paper PMC7826260.
Some of the results follow. Viral Rep nickase domains cut single-stranded DNA in vitro (3 µM enzyme, 1 h, 37 °C); shown is the middle of each 90-letter strand. Values are log2 of uncut reads against the no-enzyme pool; more negative means more cut, near 0 not cut, and no call is made. Shares of all reads are compared; uncut strands gain when others are lost, and binding without cutting may add a little.

Key:
Assay in all cases: uncleaved DNA left, log2 of reads against the no-enzyme library (log2 ratio); higher = less cleavage (more negative = more Rep cleavage of the k-mer); sequences stand for … in CTCGTCCG…ACCGGAGA
[1] = system: T1, Rep nickase domain of Muscovy duck circovirus
T1 sequence (residues 1-111, tag not shown): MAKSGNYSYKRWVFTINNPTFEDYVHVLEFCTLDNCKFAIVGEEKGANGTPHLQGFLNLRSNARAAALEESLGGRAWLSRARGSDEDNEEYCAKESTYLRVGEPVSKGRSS
Description: (§1)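 A pool of 90-nt single-stranded DNAs with seven random bases just before the constant AC of the nick site (name = the seven bases) was cut by 3 µM recombinant His6-SUMO-tagged Rep nickase domain (300 nM DNA, 50 mM HEPES pH 8.0, 50 mM NaCl, 1 mM MnCl2, 1 h, 37 °C, three replicates). Uncut DNA was amplified and sequenced.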

[2] = system: T2, Rep nickase domain of banana bunchy top virus
T2 sequence (residues 1-94, tag not shown): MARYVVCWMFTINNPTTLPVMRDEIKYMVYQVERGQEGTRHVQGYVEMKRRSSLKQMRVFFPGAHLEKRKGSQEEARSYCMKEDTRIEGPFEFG
Description: as §1

[3] = system: T3, Rep nickase domain of cabbage leaf curl virus
T3 sequence (residues 1-116, tag not shown): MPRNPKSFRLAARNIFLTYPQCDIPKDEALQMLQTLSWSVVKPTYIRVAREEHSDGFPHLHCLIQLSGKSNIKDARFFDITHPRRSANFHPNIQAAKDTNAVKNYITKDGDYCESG
Description: as §1

[4] = system: T4, Rep nickase domain of chickpea chlorotic dwarf virus
T4 sequence (residues 1-124, tag not shown): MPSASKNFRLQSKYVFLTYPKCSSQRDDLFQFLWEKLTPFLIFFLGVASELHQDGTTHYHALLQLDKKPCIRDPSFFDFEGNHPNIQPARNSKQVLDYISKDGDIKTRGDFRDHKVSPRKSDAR
Description: as §1

[5] = system: T5, Rep nickase domain of faba bean necrotic yellows virus
T5 sequence (residues 1-98, tag not shown): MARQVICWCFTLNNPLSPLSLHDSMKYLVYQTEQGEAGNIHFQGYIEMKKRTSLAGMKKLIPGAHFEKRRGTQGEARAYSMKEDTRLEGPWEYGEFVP
Description: as §1

[6] = system: T6, Rep nickase domain of maize striate mosaic virus
T6 sequence (residues 1-117, tag not shown): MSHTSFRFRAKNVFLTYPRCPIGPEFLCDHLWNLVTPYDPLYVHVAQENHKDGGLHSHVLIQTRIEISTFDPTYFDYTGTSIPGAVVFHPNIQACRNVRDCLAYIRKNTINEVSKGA
Description: as §1

[7] = system: T7, Rep nickase domain of porcine circovirus 2
T7 sequence (residues 2-116, tag not shown): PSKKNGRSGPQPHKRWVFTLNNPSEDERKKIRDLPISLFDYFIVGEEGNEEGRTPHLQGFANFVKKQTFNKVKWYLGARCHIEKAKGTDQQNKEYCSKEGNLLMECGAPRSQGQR
Description: as §1

[8] = system: T8, Rep nickase domain of tomato golden mosaic virus
T8 sequence (residues 1-124, tag not shown): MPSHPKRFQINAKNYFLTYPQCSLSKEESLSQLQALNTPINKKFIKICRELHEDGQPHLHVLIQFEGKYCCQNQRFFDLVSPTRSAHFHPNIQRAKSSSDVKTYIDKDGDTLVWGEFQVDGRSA
Description: as §1

[9] = system: T9, Rep nickase domain of tomato yellow leaf curl virus
T9 sequence (residues 1-136, tag not shown): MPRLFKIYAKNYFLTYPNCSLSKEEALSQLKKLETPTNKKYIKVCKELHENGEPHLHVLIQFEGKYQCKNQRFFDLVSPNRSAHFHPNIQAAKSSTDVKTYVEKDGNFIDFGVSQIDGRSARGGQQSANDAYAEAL
Description: as §1

[10] = system: T10, Rep nickase domain of wheat dwarf virus
T10 sequence (residues 1-137, tag not shown): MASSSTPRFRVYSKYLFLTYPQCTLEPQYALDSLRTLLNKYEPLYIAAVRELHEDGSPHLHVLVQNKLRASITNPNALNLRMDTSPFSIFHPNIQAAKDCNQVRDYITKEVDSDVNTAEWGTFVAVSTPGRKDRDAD
Description: as §1

| Sequence | uncleaved DNA left (log2) [1] | uncleaved DNA left (log2) [2] | uncleaved DNA left (log2) [3] | uncleaved DNA left (log2) [4] | uncleaved DNA left (log2) [5] | uncleaved DNA left (log2) [6] | uncleaved DNA left (log2) [7] | uncleaved DNA left (log2) [8] | uncleaved DNA left (log2) [9] | uncleaved DNA left (log2) [10] |
| --- | --- | --- | --- | --- | --- | --- | --- | --- | --- | --- |
| TGCCTAA | -0.0532 | 0.0515 | 0.107 | -0.15 | -0.0164 | -0.293 | -0.0957 | -0.0384 | 0.082 | 0.0373 |
| AACCACT | 0.0578 | -0.00672 | -0.571 | -2.97 | 0.0627 | -0.701 | -2.18 | -0.0428 | -0.0408 | -0.0553 |
| TAGGGCT | 0.131 | 0.0749 | 0.234 | -0.117 | 0.0123 | 0.905 | -0.345 | 0.0807 | -0.0177 | -0.0796 |
| GACCCGC | 0.0449 | 0.0449 | 0.597 | 1.19 | -0.0583 | 0.636 | -0.0617 | -0.166 | 0.103 | 0.12 |
| TTCGACT | 0.0232 | -0.125 | -0.00924 | -0.077 | -0.172 | 1.14 | -0.0539 | -0.172 | -0.0504 | -0.0418 |
| ATAGGTG | 0.0892 | -0.093 | -0.259 | -0.118 | 0.107 | -0.596 | 0.167 | 0.0291 | 0.0299 | -0.0258 |
| TTGTTAG | 0.132 | -0.0385 | -0.696 | -0.57 | -0.0661 | -1.22 | 0.0417 | -0.118 | 0.00924 | -0.0969 |
| TAGACGG | 0.0166 | 0.0673 | 0.332 | 1.11 | 0.0784 | 1.78 | 0.128 | 0.053 | -0.0325 | -0.000274 |
| GCACCCT | -0.0562 | 0.00591 | -0.0127 | -1.11 | -0.0811 | 0.132 | -0.325 | -0.0558 | -0.0646 | -0.0443 |
| TGGTCTT | -1.07 | -0.0931 | 0.45 | -0.317 | -0.113 | 1.47 | -3.01 | -0.111 | -0.0532 | 0.113 |
| CTAGATT | 0.0404 | -0.177 | -0.00351 | -2.11 | 0.053 | -0.233 | -1.45 | 0.0524 | 0.088 | -0.13 |
| ACTTAGG | 0.129 | -0.0105 | -0.39 | 0.249 | -0.0111 | -0.686 | 0.179 | 0.137 | 0.0549 | 0.0435 |
| TATCAAA | 0.0543 | 0.134 | 0.283 | 0.018 | -0.0303 | -0.0358 | 0.0747 | 0.0394 | 0.156 | 0.111 |
| CCCCGGG | -0.121 | -0.0329 | 0.226 | 0.323 | -0.149 | -0.051 | -0.0143 | 0.0295 | 0.0268 | -0.000754 |
| CCTGATC | 0.0973 | -0.082 | 0.194 | 0.343 | 0.259 | 0.284 | 0.0661 | -0.107 | 0.12 | 0.0214 |
| GTCTGTT | -1.35 | 0.0394 | 0.172 | 0.36 | -0.00572 | 1.56 | -2.31 | -0.00566 | 0.0525 | 0.0262 |
| GAACCCC | -0.179 | 0.0118 | 0.312 | -0.186 | 0.0955 | 0.919 | -0.58 | 0.0735 | 0.143 | 0.111 |
| GCCTAGT | -1.05 | -0.0533 | 0.0857 | 0.045 | -0.0467 | -0.314 | -2.37 | 0.0172 | 0.0508 | -0.137 |
| CACCTCA | -0.0948 | 0.0271 | -0.125 | -1.97 | 0.0312 | -0.408 | -0.174 | -0.0734 | -0.0213 | 0.0605 |
| AGACCTT | 0.149 | 0.207 | 0.748 | 1.39 | 0.105 | 2.13 | 0.108 | -0.0641 | 0.171 | 0.337 |
| CTGGGCT | 0.174 | 0.0505 | 0.199 | 0.299 | 0.168 | 0.133 | 0.213 | 0.0277 | 0.107 | 0.0973 |
| TAATCAC | -0.101 | 0.000925 | -3.5 | -2.98 | -0.156 | -2.44 | -0.208 | -3.41 | -0.0155 | -3.23 |
| CTGATAG | 0.116 | 0.117 | -0.756 | -0.429 | 0.0304 | -1.03 | 0.222 | 0.0817 | 0.122 | -0.118 |
| ATAAGTA | 0.0655 | 0.0459 | -1.35 | -2.5 | 0.0405 | -0.839 | -0.185 | 0.0203 | -0.0402 | -0.277 |
| AAGGCCG | 0.0477 | 0.108 | -0.643 | -0.423 | 0.129 | -0.985 | 0.27 | 0.0462 | 0.0965 | 0.0472 |
| ATTTGAA | 0.0889 | 0.121 | -0.147 | -0.49 | 0.139 | -0.627 | -0.105 | 0.15 | 0.176 | 0.176 |
| CACACCC | -0.228 | -0.223 | -0.173 | -1.07 | -0.181 | -0.45 | -0.453 | -0.228 | -0.202 | -0.209 |
| CTTGTTC | -0.131 | -0.0516 | 0.017 | -1.13 | -0.164 | -0.911 | -0.203 | -0.0885 | -0.0759 | 0.00922 |
| TTAGGAG | 0.066 | -0.044 | -0.191 | -0.0834 | -0.00651 | -0.7 | 0.172 | 0.0934 | 0.0522 | 0.062 |
| CGGCGAG | 0.0626 | -0.116 | -0.0433 | 0.329 | -0.103 | -0.282 | 0.0153 | -0.027 | -0.0227 | 0.0661 |
